Counter-ions that a name gives are not always drawn. ± gives the standard deviation of the averaged measurements. The full ranking holds about 2,000 compounds; the median of “relative cell viability vs DMSO, compound alone” is about 1.1, and the lowest 2% start at about 0.29. Some of the results follow.
These compounds were tested on TE10 (assay: relative cell viability vs DMSO, compound alone (fraction); TE10 is an esophageal squamous carcinoma line; higher = less cytotoxic). Settings: 2 µM; 48 h.
Procedure: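 TE10 ESCC cells (1,000/well, 384-well plates) were treated with Selleck bioactive library compounds at 2 uM alone for 48 h. Viability was read by CellTiter-Glo and expressed relative to DMSO wells. Two technical replicates (A, B).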

| Structure (SMILES) | relative cell viability |
| --- | --- |
| CN(C)Cc1c[nH]c2ccccc12 [Gramine] | 1.15 ± 0.025 |
| O=C(O)CCCc1ccc(N(CCCl)CCCl)cc1 [Chloroambucil] | 1.14 ± 0.012 |
| CC[C@@H](C(N)=O)N1CCCC1=O [Levetiracetam] | 1.189 ± 0.0022 |
| COc1ccc(C(=O)N2CCCC2=O)cc1 [Aniracetam] | 1.19 ± 0.093 |
| O=C(O[C@H]1C[C@H]2CC[C@@H](C1)[N+]21CCCC1)C(O)(c1ccccc1)c1ccccc1 [Trospium chloride] | 1.04 ± 0.13 |
| COc1cc([C@@H]2c3cc4c(cc3[C@H](O)[C@H]3COC(=O)[C@@H]23)OCO4)cc(OC)c1OC [Picropodophyllin (PPP)] | 0.985 ± 0.093 |
| CN1CCC(c2c[nH]c3ccc(O)cc23)CC1 | 1.16 ± 0.025 |
| NC(=O)CN1CC(O)CC1=O (stereo not given) [Oxiracetam] | 1.15 ± 0.024 |
| CCNC(=O)C[C@@H]1N=C(c2ccc(Cl)cc2)c2cc(OC)ccc2-n2c(C)nnc21 | 0.83653 ± 0.00018 |
| CC(C)=CCC[C@]1(C)C=Cc2c(O)c3c(c(CC=C(C)C)c2O1)O[C@]12C(=C[C@@H]4C[C@H]1C(C)(C)O[C@@]2(C/C=C(/C)C(=O)O)C4=O)C3=O [Gambogic Acid] | 0.0673 ± 0.0049 |
| CN1c2ccccc2C(NCCCCCCC(=O)O)c2ccc(Cl)cc2S1(=O)=O (stereo not given) [Tianeptine sodium] | 1.31 ± 0.099 |
| C[N+](C)(C)CCCCCCCCCC[N+](C)(C)C [Decamethonium Bromide] | 0.972 ± 0.035 |
| O=C(O)CNC(=O)c1c(O)c2ccccc2n(Cc2ccccc2)c1=O | 1.09 ± 0.038 |
| COc1cc(-n2c(=S)[nH]c3ccccc3c2=O)c(Cl)cc1Cl [Mdivi-1] | 1.11 ± 0.081 |
| CCCN1C[C@H](CSC)C[C@@H]2c3cccc4[nH]cc(c34)C[C@H]21 [Pergolide mesylate] | 1.06 ± 0.058 |
| CC(=O)Nc1ccc(Cc2ccc(NC(C)=O)cc2)cc1 | 1.1 ± 0.026 |
| CC1=C(O)C(=O)C=C2C1=CC=C1[C@@]2(C)CC[C@@]2(C)[C@@H]3C[C@](C)(C(=O)O)CC[C@]3(C)CC[C@]12C [Celastrol] | 0.306 ± 0.0087 |
| C[C@H]1CCC/C=C/[C@@H]2C[C@H](O)C[C@H]2[C@H](O)/C=C/C(=O)O1 [Brefeldin A] | 0.2497 ± 0.0017 |
| Cc1cc(O)ccc1Cl [Chlorocresol] | 1.14 ± 0.047 |
| c1cc2c(cc1[C@H]1OC[C@H]3[C@@H]1CO[C@@H]3c1ccc3c(c1)OCO3)OCO2 [Sesamin] | 1.09 ± 0.023 |
| NCCc1ccc(S(=O)(=O)F)cc1 | 1.15 ± 0.012 |
| Fc1cc(F)c2c(c1)[C@H]1C=CC[C@H]1C(c1cccnc1)N2 (stereo not given in full) [Golgicide A] | 0.9811 ± 0.0014 |
| CN1[C@@H]2CC[C@H]1C[C@@H](OC(=O)[C@H](CO)c1ccccc1)C2 [Hyoscyamine] | 1.13 ± 0.017 |
| Nc1nc(N)nc(NC2CC2)n1 [Cyromazine] | 1.108 ± 0.0048 |

| Structure (SMILES) | relative cell viability |
| --- | --- |
| C=C[C@H]1CN2CC[C@H]1C[C@H]2[C@H](O)c1ccnc2ccccc12 [Cinchonidine] | 1.06 ± 0.018 |
| Cc1cccc(C(C)c2c[nH]cn2)c1C (stereo not given) [Medetomidine HCl] | 1.085 ± 0.0051 |
| C/C(=C\c1csc(C)n1)[C@@H]1C[C@@H]2O[C@]2(C)CCC[C@H](C)[C@H](O)[C@@H](C)C(=O)C(C)(C)[C@@H](O)CC(=O)O1 [Epothilone B (EPO906, Patupilone)] | 0.857 ± 0.023 |
| C=CC[C@]1(O)CC[C@H]2[C@@H]3CCC4=CC(=O)CCC4=C3C=C[C@@]21C [Altrenogest] | 1.115 ± 0.0019 |
| O=c1[nH]c2ccccc2n1CCCN1CCC(n2c(=O)[nH]c3cc(Cl)ccc32)CC1 [Domperidone] | 1.12 ± 0.041 |
| O=S(=O)(CC1CS1)c1ccc(Oc2ccccc2)cc1 (stereo not given) | 1.14 ± 0.013 |
| O=P1(NCCCl)OCCCN1CCCl (stereo not given) [Ifosfamide] | 1.28 ± 0.077 |
| NC(=O)CN1CCCC1=O [Piracetam] | 1.09 ± 0.018 |
| O=S(=O)(F)Cc1ccccc1 | 0.978 ± 0.021 |
| O=C(O[C@H]1C[N+]2(CCCOc3ccccc3)CCC1CC2)C(O)(c1cccs1)c1cccs1 [Aclidinium Bromide] | 0.9708 ± 0.0095 |
| Cc1cc(SCc2sc(-c3ccc(C(F)(F)F)c(F)c3)nc2C)ccc1OCC(=O)O | 1.128 ± 0.0016 |
| CC(C)(C)[C@]1(O)CC2OC(=O)CC23C(=O)OC2OC(=O)[C@H](O)C231 (stereo not given in full) [Bilobalide] | 1.11 ± 0.022 |
| O=C(Oc1ccc([N+](=O)[O-])cc1)N1CCC(C(O)(c2ccc3c(c2)OCO3)c2ccc3c(c2)OCO3)CC1 | 1.04 ± 0.032 |
| O=C1CCC[C@@H]2[C@H]3CCCN4CCC[C@@H](CN12)[C@@H]34 [(+)-Matrine] | 1.1 ± 0.059 |
| Cc1cccc(C)c1NC1=NCCCS1 [Xylazine HCl] | 1.11 ± 0.016 |
| C[C@@H]1CC[C@H]2[C@@H](C)C(=O)O[C@@H]3O[C@@]4(C)CC[C@@H]1[C@]32OO4 [Artemisinin] | 0.94 ± 0.19 |
| CCC1(c2cccc(O)c2)CCCCN(C)C1 (stereo not given) [Meptazinol HCl] | 0.904 ± 0.12 |
| Cc1c(Cl)c(OCC(=O)N2CCN(C)CC2)nc2sc(C(=O)NC3CC3)c(N)c12 | 1.04 ± 0.019 |
| COc1ccc2c(c1)/C(=C/c1cnc[nH]1)C(=O)N2 | 1.16 ± 0.054 |
| COc1ccc(C[C@H]2NC[C@H](O)[C@H]2OC(C)=O)cc1 [Anisomycin] | 0.328 ± 0.025 |
| CCC(COC(=O)c1cc(OC)c(OC)c(OC)c1)(c1ccccc1)N(C)C (stereo not given) [Trimebutine] | 1.11 ± 0.052 |
| C/C=C(\C)C(=O)N[C@@H](c1ccccc1)[C@@H](O)C(=O)O[C@H]1C[C@@]2(O)[C@@H](OC(=O)c3ccccc3)[C@@H]3[C@]4(OC(C)=O)CO[C@@H]4C[C@H](O)[C@@]3(C)C(=O)[C@H](OC(C)=O)C(=C1C)C2(C)C [Cephalomannine] | 0.52 ± 0.0058 |
| NCCc1c[nH]c2ccc(O)cc12 [Serotonin HCl] | 0.996 ± 0.16 |
| C[C@@]12N[C@@H](Cc3ccccc31)c1ccccc12 [(-)-MK 801 Maleate] | 1.01 ± 0.098 |

| Structure (SMILES) | relative cell viability |
| --- | --- |
| CC(=O)OC12COC1CC(O)C1(C)C(=O)C(O)C3=C(C)C(O)CC(O)(C(OC(=O)c4ccccc4)C21)C3(C)C (stereo not given) [10-Deacetylbaccatin-III] | 0.817 ± 0.079 |
| C#C[C@]1(O)C=C[C@H]2[C@@H]3CCC4=CC(=O)CC[C@@H]4[C@H]3CC[C@@]21CC [Gestodene] | 0.9 ± 0.016 |
| NCC(=O)O.[C-]#[O+].[C-]#[O+].[C-]#[O+].[Cl][Ru] | 0.858 ± 0.024 |
| Cc1cc(C(=O)CN2CCCC2)c(C)n1-c1ccc(F)cc1 | 1.04 ± 0.12 |
| Cc1cccc([C@H](C)c2c[nH]cn2)c1C [Dexmedetomidine] | 0.8337 ± 0.0044 |
| Cc1cccc([C@H](C)c2c[nH]cn2)c1C [Dexmedetomidine HCl (Precedex)] | 1.08 ± 0.027 |
| CC(=O)Nc1ccc(OC[C@](C)(O)C(=O)Nc2ccc([N+](=O)[O-])c(C(F)(F)F)c2)cc1 [Andarine] | 1.187 ± 0.01 |
| C[C@](O)(COc1ccc(C#N)cc1)C(=O)Nc1ccc(C#N)c(C(F)(F)F)c1 | 1.2 ± 0.038 |
| C[C@]12N[C@H](Cc3ccccc31)c1ccccc12 [MK-801 (Dizocilpine)] | 1.04 ± 0.011 |
| C[C@]12CC[C@H]3[C@@H](CC[C@@]45O[C@@H]4C(O)=C(C#N)C[C@]35C)[C@@H]1CC[C@@H]2O [Trilostane] | 1.08 ± 0.055 |
| Cc1c(N)nc(C(CC(N)=O)NCC(N)C(N)=O)nc1C(=O)NC(C(=O)NC(C)C(O)C(C)C(=O)NC(C(=O)NCCc1nc(-c2nc(C(=O)NCCC[S+](C)C)cs2)cs1)C(C)O)C(O[C@@H]1O[C@@H](CO)[C@@H](O)[C@H](O)[C@@H]1O[C@H]1O[C@H](CO)[C@@H](O)[C@H](OC(N)=O)[C@@H]1O)c1cnc[nH]1 (stereo not given in full) [Bleomycin Sulfate] | 0.856 ± 0.038 |
| CNCC(=O)c1ccc(O)c(O)c1 [Adrenalone HCl] | 1.14 ± 0.04 |
| CN1C2CC(O)CC1C1OC12 (stereo not given) [Scopine] | 0.808 ± 0.14 |
| CC(C)N(CCNC(=O)CN1CCCC1=O)C(C)C [Pramiracetam] | 1 ± 0.054 |
| COC(=O)C1=CCCN(C)C1 [Arecoline] | 0.833 ± 0.1 |
| CCN(C)C(=O)Oc1cccc([C@H](C)N(C)C)c1 [Rivastigmine Tartrate] | 1.08 ± 0.011 |
| CCC1(c2ccc(N)cc2)CCC(=O)NC1=O (stereo not given) [Aminoglutethimide] | 0.887 ± 0.062 |
| C[C@]12CC[C@H](O)C[C@@H]1CC[C@@H]1[C@@H]2CC[C@]2(C)C(=O)CC[C@@H]12 [Epiandrosterone] | 1.09 ± 0.031 |
| C[N+]1(C)[C@@H]2C[C@@H](OC(=O)[C@H](CO)c3ccccc3)C[C@H]1[C@@H]1O[C@@H]12 [Methscopolamine] | 1 ± 0.027 |
| CN(C)C(=O)Oc1cc(OC(=O)N(C)C)cc(C(O)CNC(C)(C)C)c1 (stereo not given) [Bambuterol HCl] | 0.945 ± 0.023 |
| NCC(O)c1ccc(O)cc1 (racemic) [(+,-)-Octopamine HCl] | 0.99 ± 0.034 |
| C[C@@H]1O[C@@H](O[C@H]2C[C@@H](O)[C@]3(CO)[C@H]4[C@H](O)C[C@]5(C)[C@@H](C6=CC(=O)OC6)CC[C@]5(O)[C@@H]4CC[C@]3(O)C2)[C@H](O)[C@H](O)[C@H]1O [Ouabain] | 0.518 ± 0.013 |

Source: the supplement of paper PMC10670038
